Measured values reported in patent US20120270251A1, “INHIBITION OF THE ACTIVITY OF KINASE AND SYNTHETASE ENZYMES” (CSIR, priority 2009, published 2012).

Target: T1, AK1 (Homo sapiens, UniProt P00568)
T1 sequence (P00568 1-194): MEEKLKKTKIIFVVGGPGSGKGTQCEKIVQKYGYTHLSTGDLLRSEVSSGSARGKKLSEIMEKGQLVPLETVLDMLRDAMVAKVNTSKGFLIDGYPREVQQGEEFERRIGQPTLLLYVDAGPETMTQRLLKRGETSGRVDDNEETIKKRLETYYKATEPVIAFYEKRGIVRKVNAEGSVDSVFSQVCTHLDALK
Experiment: AK1 enzyme activity in presence of imidazole compounds over a pH range (ADP by HPLC)
Details: 2 mM compound, range of pH values

Cc1nccn1C.Cl [1,2 dimethyl imidazole.HCl]
inhibition of the activity of AK1 compared with the activity in the presence of NaCl: distinctive inhibition
